In article PMC10668032 one finds binding signal data, which are given here for 172 sequences.

This is one part of the list. At the low end of the ranking, values are background and their order means little.

The assay concerns the target SIX1-Q177R homeodomain (UniProt Q15475). The assay is described as follows: universal protein binding microarray. As to conditions: Universal all-10-mer PBM (8x60K, AMADID 030236), 300 nM GST-tagged protein, Alexa Fluor 488 anti-GST; buffer, salt, pH and temperature not stated; high values mean tight binding; most listed sequences are background and not binding sites; double strand, one strand shown.
Turning to GCTCTACA, the binding signal was found to be 0.0598 E-score.

Consider CTCTGTAC, for which the binding signal is -0.0644 E-score.

As for CCTCAACA, the binding signal was found to be 0.204 E-score.

For CTTATCGA, the binding signal was -0.0522 E-score.

With AAAGATCC, the binding signal is -0.174 E-score.

Consider CGTTGGGC, for which the binding signal is -0.0337 E-score.

ACAACGAA: the binding signal is -0.0242 E-score.

In the case of AAGTCACG, the binding signal is -0.0149 E-score.

Consider ACGATTGC, for which the binding signal was -0.0427 E-score.

CGGAAGTA: the binding signal is -0.0591 E-score.

Turning to CAGATCCG, the binding signal stood at 0.0479 E-score.

For TCATAGGA, the binding signal was -0.138 E-score.

Consider ATTTCATA, for which the binding signal stood at 0.00298 E-score.

On to ACGGCCAG, for which the binding signal was -0.0922 E-score.

Consider CCAGGGGG, for which the binding signal was 0.0958 E-score.

On to AAAGCCAT, for which the binding signal was -0.27 E-score.

Regarding GATCTGCA, the binding signal is 0.00799 E-score.

For the sequence CACAGCTC, the binding signal is -0.0371 E-score.

With CGATACCG, the binding signal came out at 0.233 E-score.

With GGTAAGGA, the binding signal is -0.0813 E-score.

As for AGCTGATA, the binding signal is -0.0947 E-score.

Turning to CGACATGA, the binding signal stood at 0.0835 E-score.

With GATCTTCA, the binding signal was -0.0843 E-score.

In the case of CTGCAGGC, the binding signal is -0.249 E-score.

CTCCGGAA: the binding signal was -0.12 E-score.

As to TGACTCCA, the binding signal amounted to 0.249 E-score.

For the sequence AATGCGCC, the binding signal was found to be 0.0246 E-score.

Turning to GCGGACTA, the binding signal was -0.177 E-score.

As for ACGTGTTA, the binding signal worked out at 0.352 E-score.

Take GAAGGGGA: the binding signal was -0.0302 E-score.

For the sequence CCCGGGTA, the binding signal amounted to 0.252 E-score.

Regarding ACTTTAAT, the binding signal was -0.0641 E-score.

For the sequence CCGAAGGA, the binding signal is 0.0587 E-score.

Turning to CTCACAGC, the binding signal is -0.128 E-score.

Regarding TAGTATGA, the binding signal was -0.0172 E-score.

For the sequence CAAGGAGC, the binding signal is -0.115 E-score.

As to ATATGAAT, the binding signal is -0.141 E-score.

With TACAACTA, the binding signal was -0.075 E-score.

With AAGGTTTG, the binding signal is -0.0842 E-score.

CATTCAAA: the binding signal is -0.185 E-score.

With CACAGAAC, the binding signal turned out to be 0.0828 E-score.

Turning to CCTATAAC, the binding signal came to 0.194 E-score.

As to GCGCACAC, the binding signal worked out at 0.289 E-score.

Turning to ATAGCAAT, the binding signal is -0.118 E-score.

With GAGGAAGA, the binding signal is -0.202 E-score.

For the sequence CAGTCCAA, the binding signal was -0.111 E-score.

In the case of ATCCACGC, the binding signal is -0.105 E-score.

In the case of GGCGCCGA, the binding signal was -0.0887 E-score.

As for ATGATCGG, the binding signal was -0.0775 E-score.

In the case of GGTATCTA, the binding signal was 0.216 E-score.

In the case of TAAGCTGA, the binding signal is -0.0983 E-score.

As to AAGTGGAA, the binding signal is 0.0977 E-score.

In the case of ACCAGCTG, the binding signal worked out at 0.0235 E-score.

As for CCACACCG, the binding signal was determined as 0.363 E-score.

Turning to AATTCATG, the binding signal was -0.0272 E-score.

As for AGACTCCT, the binding signal was 0.0374 E-score.

As to CGGCTCTA, the binding signal is -0.0884 E-score.

In the case of ACTGACAT, the binding signal was -0.038 E-score.

On to CAGTGTGC, for which the binding signal was 0.12 E-score.

In the case of GGGACCGA, the binding signal was -0.157 E-score.

Regarding AATTTGGG, the binding signal was -0.144 E-score.

Consider GCCGGCAC, for which the binding signal was -0.104 E-score.

For the sequence ACTCGGCA, the binding signal worked out at 0.161 E-score.

GCGCTTGA: the binding signal is -0.203 E-score.

With GCGGCCTA, the binding signal was -0.163 E-score.

Turning to CAACCCTA, the binding signal was determined as 0.0885 E-score.

As for ACTACACT, the binding signal was determined as 0.431 E-score.

For GGGAAAAC, the binding signal is -0.147 E-score.

Consider CCCGGACC, for which the binding signal was found to be 0.0319 E-score.

Turning to CCAACCAC, the binding signal is 0.134 E-score.

As for CCACTGTA, the binding signal was 0.0301 E-score.

Take CATATGAC: the binding signal is -0.0276 E-score.

Turning to ACCCCATG, the binding signal worked out at 0.226 E-score.

For ATAGCGTA, the binding signal is -0.0919 E-score.

As to GACCCAGC, the binding signal came out at 0.0632 E-score.

Take TGATCCAA: the binding signal was 0.0781 E-score.

For CACAAGAC, the binding signal was -0.108 E-score.

CGTACGAA: the binding signal is -0.192 E-score.

For the sequence AAGTCTCC, the binding signal is -0.301 E-score.

For the sequence ATATTAAT, the binding signal was -0.0555 E-score.

With GAAGCATC, the binding signal is -0.138 E-score.

Consider AGGGATAA, for which the binding signal is 0.109 E-score.

In the case of AAGCTTGT, the binding signal was -0.117 E-score.

For the sequence CATGCTAA, the binding signal was -0.224 E-score.

As for CTCTTCAA, the binding signal is -0.108 E-score.

Turning to ACACAAAC, the binding signal turned out to be 0.123 E-score.

Consider GTTACAGA, for which the binding signal was -0.0521 E-score.

Regarding AACATCGA, the binding signal is -0.0983 E-score.

On to AATCGCTA, for which the binding signal was 0.0501 E-score.

As to AAAATGTA, the binding signal was -0.234 E-score.

In the case of ACGAATCG, the binding signal was -0.00509 E-score.

For AAGTGCTA, the binding signal was -0.0655 E-score.

As to CAAGAAAG, the binding signal is -0.237 E-score.

With CGTTTGTA, the binding signal is -0.276 E-score.

TGGGTAAA: the binding signal was -0.0968 E-score.

For the sequence AGCCAGAT, the binding signal is -0.178 E-score.

Consider GCTTACCA, for which the binding signal was -0.112 E-score.

AGAGCAAC: the binding signal was -0.127 E-score.

For GTGAACGA, the binding signal was -0.127 E-score.

Turning to ACATACTC, the binding signal stood at 0.0372 E-score.

With AGGCCGTC, the binding signal was -0.169 E-score.

Take AGGACACA: the binding signal came to 0.224 E-score.

For AACTCGCG, the binding signal was determined as 0.0375 E-score.

Regarding GCTATGAC, the binding signal was -0.2 E-score.

As to CAATCACA, the binding signal is -0.0521 E-score.

For AATGGGCT, the binding signal is -0.0422 E-score.

Take ATTCGGCC: the binding signal is 0.0525 E-score.

Take CCGCTCGA: the binding signal is -0.087 E-score.

Take ACCATGGG: the binding signal is 0.162 E-score.

As to GACACAGA, the binding signal amounted to 0.118 E-score.

In the case of ACCCTGGC, the binding signal was found to be 0.0832 E-score.

On to TGTGGCAA, for which the binding signal was -0.00668 E-score.

Consider CCTAGGGA, for which the binding signal is 0.0728 E-score.

Consider AGAGCAAG, for which the binding signal is -0.0458 E-score.

Regarding CACTGGCG, the binding signal amounted to 0.268 E-score.

On to CCCCTGAC, for which the binding signal turned out to be 0.271 E-score.

As for GAGAGTCC, the binding signal is -0.187 E-score.

Regarding AAGCGGAA, the binding signal is -0.115 E-score.

For CCCGTAAG, the binding signal was 0.119 E-score.

ACCCTAAA: the binding signal was 0.11 E-score.

Consider CTCCTCCA, for which the binding signal worked out at 0.103 E-score.

As to GGTGAGAA, the binding signal is -0.00273 E-score.

In the case of ATAATTTG, the binding signal was -0.136 E-score.

As to CTCTGGGC, the binding signal is -0.101 E-score.

Take CACCCTGA: the binding signal was found to be 0.339 E-score.

For ACTGTGTC, the binding signal was determined as 0.155 E-score.

As to TACTAATA, the binding signal was -0.138 E-score.

Consider GTTATCGA, for which the binding signal is -0.0482 E-score.

As for AGATAGAC, the binding signal was 0.154 E-score.

For the sequence ACGCGCGC, the binding signal was found to be 0.052 E-score.

In the case of CATTATGG, the binding signal was 0.00229 E-score.

Take ACCCATGA: the binding signal is 0.108 E-score.

As for AATAGGGA, the binding signal was 0.158 E-score.

Consider AGACGTCG, for which the binding signal is -0.164 E-score.

Regarding ATATCCTA, the binding signal is -0.0312 E-score.

On to AGCTCAGG, for which the binding signal is -0.118 E-score.

Take ATGCAGGG: the binding signal was -0.00814 E-score.

In the case of ACCTTTCA, the binding signal was -0.0295 E-score.

For the sequence AATCATCT, the binding signal was -0.028 E-score.

For CTCTACAA, the binding signal was -0.13 E-score.

For CTGTTGAA, the binding signal is -0.118 E-score.

In the case of ACGAGACC, the binding signal is 0.12 E-score.

As to AGGTGACT, the binding signal stood at 0.165 E-score.

As for GCCGTTCC, the binding signal amounted to 0.0211 E-score.

With ATTGCCCC, the binding signal is -0.142 E-score.

As to CAGTTGTC, the binding signal is -0.124 E-score.

Consider CACAGGGG, for which the binding signal is 0.141 E-score.

Turning to ATTGACGC, the binding signal came to 0.0242 E-score.

Regarding CTAGGTGA, the binding signal was -0.0468 E-score.

For the sequence AATGGACG, the binding signal was -0.154 E-score.

With GGATCGCC, the binding signal was determined as 0.102 E-score.

As to AGAGAGTG, the binding signal was found to be 0.0559 E-score.

CCCAACTA: the binding signal amounted to 0.0269 E-score.

Turning to ATTCTCCG, the binding signal was -0.0859 E-score.

With CCGTTTGC, the binding signal is -0.225 E-score.

On to ATCGACAT, for which the binding signal is -0.123 E-score.

For CTCTGGCA, the binding signal is -0.0398 E-score.

GTGATGCA: the binding signal was -0.224 E-score.

As to TATTTCAA, the binding signal is -0.188 E-score.

Consider CGAGCGAA, for which the binding signal is -0.168 E-score.

For AAGCACGT, the binding signal was found to be 0.1 E-score.

For the sequence ATTAGCTA, the binding signal was -0.0207 E-score.

In the case of ACTTATAA, the binding signal is 0.00439 E-score.

As to CAGCGCTA, the binding signal is -0.201 E-score.

As to CATCTAGA, the binding signal is -0.138 E-score.

Consider CCAGCCAC, for which the binding signal came out at 0.104 E-score.

With GACACACA, the binding signal amounted to 0.334 E-score.

Consider CAATCGAC, for which the binding signal is -0.0797 E-score.

Consider CTCCTTGC, for which the binding signal was -0.129 E-score.

On to ATGGCACA, for which the binding signal was determined as 0.018 E-score.

As to AGTCGTAG, the binding signal is -0.0895 E-score.

Regarding CGCATCCC, the binding signal is -0.0467 E-score.
